US20230129812A1 (ACCELERON PHARMA, published 2023)

Tests used:
[1] = biological target: T1, activin A (UniProt P08476 311-426); assay: SPR (Biacore); receptor-Fc captured by anti-Fc antibody, ligand injected
T1 construct: also called ActA
T1 sequence (looked up): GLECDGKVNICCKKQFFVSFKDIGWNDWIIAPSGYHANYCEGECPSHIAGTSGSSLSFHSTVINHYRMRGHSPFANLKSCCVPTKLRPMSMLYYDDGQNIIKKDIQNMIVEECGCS
Description: (§1) A Biacore™-based binding assay was used to compare ligand binding selectivity of the ActRIIA-Fc:ALK4-Fc heterodimeric complex described above with that of ActRIIA-Fc and ALK4-Fc homodimeric complexes. The ActRIIA-Fc:ALK4-Fc heterodimer, ActRIIA-Fc homodimer, and ALK4-Fc homodimer were independently captured onto the system using an anti-Fc antibody. Ligands were injected and allowed to flow over the captured receptor protein. Results are summarized in Table 14 below, in which ligand off-rates (kd) most indicative of effective ligand traps are denoted in bold.

[2] = biological target: T2, GDF8 (UniProt O14793 267-375); assay: as above
T2 construct: also called myostatin
T2 sequence (looked up): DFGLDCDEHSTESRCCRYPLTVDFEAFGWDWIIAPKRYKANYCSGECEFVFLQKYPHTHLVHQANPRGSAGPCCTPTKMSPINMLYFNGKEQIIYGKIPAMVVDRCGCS
Description: as §1

[3] = biological target: T3, GDF11 (UniProt O95390 299-407); assay: as above
T3 construct: also called BMP11
T3 sequence (looked up): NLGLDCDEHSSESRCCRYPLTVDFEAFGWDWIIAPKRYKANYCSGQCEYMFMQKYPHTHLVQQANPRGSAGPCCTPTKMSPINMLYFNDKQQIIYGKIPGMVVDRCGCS
Description: as §1

[4] = biological target: T4, activin B (UniProt P09529 293-407); assay: as above
T4 sequence (looked up): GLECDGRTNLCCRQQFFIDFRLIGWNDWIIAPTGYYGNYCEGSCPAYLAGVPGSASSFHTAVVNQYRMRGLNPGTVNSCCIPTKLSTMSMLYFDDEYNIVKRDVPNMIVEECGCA
Description: as §1

[5] = biological target: T5, activin AB (UniProt P08476 311-426; P09529 293-407); assay: as above
T5 sequence (looked up) 1: T1 sequence (looked up)
T5 sequence (looked up) 2: T4 sequence (looked up)
Description: as §1

[6] = biological target: T6, activin AC (UniProt P08476 311-426; P55103 237-352); assay: as above
T6 sequence (looked up) 1: T1 sequence (looked up)
T6 sequence (looked up) 2: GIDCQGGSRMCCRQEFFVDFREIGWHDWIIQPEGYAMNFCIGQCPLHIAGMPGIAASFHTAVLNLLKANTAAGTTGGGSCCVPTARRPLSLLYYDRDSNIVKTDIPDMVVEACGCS
Description: as §1

[7] = biological target: T7, BMP6 (UniProt P22004 375-513, limits assumed); assay: as above
T7 sequence (looked up): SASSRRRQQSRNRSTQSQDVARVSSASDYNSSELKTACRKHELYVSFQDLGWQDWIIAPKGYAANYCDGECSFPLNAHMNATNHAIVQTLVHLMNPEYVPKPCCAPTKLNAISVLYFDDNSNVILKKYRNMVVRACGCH
Description: as §1

[8] = biological target: T8, BMP7 (UniProt P18075 293-431); assay: as above
T8 sequence (looked up): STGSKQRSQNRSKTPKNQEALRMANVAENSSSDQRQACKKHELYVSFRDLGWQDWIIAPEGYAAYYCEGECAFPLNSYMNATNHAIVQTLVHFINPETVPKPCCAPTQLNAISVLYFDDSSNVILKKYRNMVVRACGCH
Description: as §1

[9] = biological target: T9, BMP10 (UniProt O95393 317-424); assay: as above
T9 sequence (looked up): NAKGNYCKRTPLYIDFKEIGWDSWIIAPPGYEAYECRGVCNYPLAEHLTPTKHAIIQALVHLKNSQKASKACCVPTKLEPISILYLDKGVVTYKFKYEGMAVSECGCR
Description: as §1

[10] = biological target: T10, GDF3 (UniProt Q9NR23 251-364); assay: as above
T10 construct: also called VGR2
T10 sequence (looked up): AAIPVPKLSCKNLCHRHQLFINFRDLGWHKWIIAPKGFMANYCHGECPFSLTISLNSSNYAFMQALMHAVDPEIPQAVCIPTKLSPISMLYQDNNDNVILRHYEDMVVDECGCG
Description: as §1

[11] = biological target: T3, GDF11; assay: SPR (Biacore); receptor-Fc captured by anti-Fc antibody, ligand injected; receptor-Fc captured by anti-Fc antibody, GDF11 injected (not GDF11 amine-coupled to the chip as in paragraph 434)
Description: as §1

[12] = biological target: T11, BMP9 (UniProt Q9UK05 320-429); assay: SPR (Biacore); receptor-Fc captured by anti-Fc antibody, ligand injected
T11 construct: also called GDF2
T11 sequence (looked up): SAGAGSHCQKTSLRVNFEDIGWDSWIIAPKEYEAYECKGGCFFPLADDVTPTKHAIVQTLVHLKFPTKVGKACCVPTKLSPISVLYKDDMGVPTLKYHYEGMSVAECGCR
Description: as §1

[13] = biological target: T3, GDF11; assay: Biacore; GDF11 immobilised on a CM5 chip by amine coupling, ActRIIA-hFc injected over it; bottom panel 'ActRIIa Binding to GDF11', five sensorgrams, the highest reaching about 35 RU at about 180 s and falling visibly up to 400 s
Description: (§2) GDF11 or activin A were immobilized on a Biacore™ CM5 chip using standard amine-coupling procedure. ActRIIA-hFc and ActRIIA-mFc proteins were loaded onto the system, and binding was measured. […] Using a similar binding assay, ActRIIA-hFc was determined to have high to moderate affinity for other TGF-beta superfamily ligands including, for example, activin B, GDF8, BMP6, and BMP10. ActRIIA-mFc behaved similarly.

[14] = biological target: T1, activin A; assay: Biacore; activin A immobilised on a CM5 chip by amine coupling, ActRIIA-hFc injected over it; top panel 'ActRIIa Binding to Activin', six sensorgrams, the highest reaching about 140 RU at about 180 s with almost no decay up to 400 s
Description: as §2

- Kd [1]: 45 pM
- koff [1]: 0.00062 s⁻¹
- kon [1]: 1.4e+07 M⁻¹ s⁻¹
- koff [2]: 0.0014 s⁻¹
- kon [2]: 1.4e+07 M⁻¹ s⁻¹
- koff [3]: 0.00092 s⁻¹
- kon [3]: 7.3e+07 M⁻¹ s⁻¹
- Kd [4]: 10 pM
- koff [4]: 0.00011 s⁻¹
- kon [4]: 1.1e+07 M⁻¹ s⁻¹
- Kd [5]: 9 pM
- koff [5]: 0.00026 s⁻¹
- kon [5]: 2.8e+07 M⁻¹ s⁻¹
- Kd [6]: 360 pM
- koff [6]: 0.0079 s⁻¹
- kon [6]: 2.2e+07 M⁻¹ s⁻¹
- Kd [7]: 800 pM
- koff [7]: 0.022 s⁻¹
- kon [7]: 2.7e+07 M⁻¹ s⁻¹
- Kd [8]: 3700 pM
- koff [8]: 0.033 s⁻¹
- kon [8]: 8.9e+06 M⁻¹ s⁻¹
- Kd [9]: 85 pM
- koff [9]: 0.0025 s⁻¹
- kon [9]: 2.9e+07 M⁻¹ s⁻¹
- Kd [10]: 2400 pM
- koff [10]: 0.0036 s⁻¹
- kon [10]: 1.5e+06 M⁻¹ s⁻¹
- Kd [11]: 13 pM
B1: ActRIIA-Fc homodimer (Fc fusion)
chain: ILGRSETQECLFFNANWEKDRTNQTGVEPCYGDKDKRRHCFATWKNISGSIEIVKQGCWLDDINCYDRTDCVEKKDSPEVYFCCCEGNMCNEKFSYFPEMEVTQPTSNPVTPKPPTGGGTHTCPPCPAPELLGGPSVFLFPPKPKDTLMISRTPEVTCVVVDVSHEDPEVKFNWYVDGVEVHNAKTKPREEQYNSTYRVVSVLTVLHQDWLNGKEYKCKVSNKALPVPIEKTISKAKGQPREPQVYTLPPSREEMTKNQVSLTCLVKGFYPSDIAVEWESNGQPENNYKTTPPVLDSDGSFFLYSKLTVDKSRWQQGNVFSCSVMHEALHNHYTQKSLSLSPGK

- Kd [1]: 32 pM
- koff [1]: 0.00024 s⁻¹
- kon [1]: 7.4e+06 M⁻¹ s⁻¹
- Kd [2]: 150 pM
- koff [2]: 0.0028 s⁻¹
- kon [2]: 1.8e+07 M⁻¹ s⁻¹
- Kd [3]: 22 pM
- koff [3]: 0.00065 s⁻¹
- kon [3]: 3e+07 M⁻¹ s⁻¹
- Kd [4]: 50 pM
- koff [4]: 0.00048 s⁻¹
- kon [4]: 9.5e+06 M⁻¹ s⁻¹
- Kd [5]: 13 pM
- koff [5]: 0.00023 s⁻¹
- kon [5]: 1.8e+07 M⁻¹ s⁻¹
- Kd [6]: 170 pM
- koff [6]: 0.00054 s⁻¹
- kon [6]: 3.2e+06 M⁻¹ s⁻¹
- Kd [7]: 2200 pM
- koff [7]: 0.012 s⁻¹
- kon [7]: 5.4e+06 M⁻¹ s⁻¹
- Kd [8]: 3500 pM
- koff [8]: 0.072 s⁻¹
- kon [8]: 2e+07 M⁻¹ s⁻¹
- binding result [12]: no binding
- Kd [9]: > 6000 pM
- Kd [10]: 9800 pM
- koff [10]: 0.0048 s⁻¹
- kon [10]: 490000 M⁻¹ s⁻¹
B2: ActRIIA-Fc:ALK4-Fc heterodimer (Fc fusion)
chain 1: [omitted - about 120 residues][omitted - about 250 residues]
chain 2: SGPRGVQALLCACTSCLQANYTCETDGACMVSIFNLDGMEHHVRTCIPKVELVPAGKPFYCLSSEDLRNTHCCYTDYCNRIDLRVPSGHLKEPEHPSMWGPVETGGGTHTCPPCPAPELLGGPSVFLFPPKPKDTLMISRTPEVTCVVVDVSHEDPEVKFNWYVDGVEVHNAKTKPREEQYNSTYRVVSVLTVLHQDWLNGKEYKCKVSNKALPAPIEKTISKAKGQPREPQVYTLPPSREEMTKNQVSLTCLVKGFYPSDIAVEWESNGQPENNYDTTPPVLDSDGSFFLYSDLTVDKSRWQQGNVFSCSVMHEALHNHYTQKSLSLSPG
notes: also called ActRIIA-Fc:ALK4-Fc heterodimeric complex

- Kd [13]: 9960 pM
- Kd [14]: 5 pM
B3: ActRIIA-hFc (Fc fusion)
chain: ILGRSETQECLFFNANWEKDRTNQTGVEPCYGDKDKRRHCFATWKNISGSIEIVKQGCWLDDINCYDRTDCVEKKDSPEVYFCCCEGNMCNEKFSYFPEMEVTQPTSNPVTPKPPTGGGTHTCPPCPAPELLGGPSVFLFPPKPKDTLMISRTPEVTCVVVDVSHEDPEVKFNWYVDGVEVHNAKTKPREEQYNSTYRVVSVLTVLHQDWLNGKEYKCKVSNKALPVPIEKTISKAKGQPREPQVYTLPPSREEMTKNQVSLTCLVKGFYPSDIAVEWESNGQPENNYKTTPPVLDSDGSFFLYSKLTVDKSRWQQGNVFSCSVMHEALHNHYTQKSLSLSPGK
notes: also called ActRIIA-hFc fusion protein

One block for each binder: values may come before it.
